Over roughly 33,000 sequences, “E-score (-0.5 to 0.5)” has its median near -0.017; the highest 2% begin near 0.3. This is one part of the list.
These sequences were tested against T1, Sut1 (UniProt P53032) (assay: PBM E-score (8-mer binding enrichment) (E-score (-0.5 to 0.5)); higher = stronger / more preferred TF binding; most listed sequences are background and not binding sites). Conditions: protein concentration: 200 nM; construct: GST-full length.
T1 sequence: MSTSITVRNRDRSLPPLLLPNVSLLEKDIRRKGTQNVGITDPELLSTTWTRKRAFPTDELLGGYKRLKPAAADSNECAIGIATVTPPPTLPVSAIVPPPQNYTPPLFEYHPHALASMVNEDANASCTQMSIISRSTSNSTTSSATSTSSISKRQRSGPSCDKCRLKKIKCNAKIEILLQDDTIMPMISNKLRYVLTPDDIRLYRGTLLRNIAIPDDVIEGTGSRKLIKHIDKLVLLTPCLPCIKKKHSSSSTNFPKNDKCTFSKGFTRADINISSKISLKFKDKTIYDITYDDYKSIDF
Method in brief: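 Full-length yeast transcription factors or their DNA-binding domains, GST-tagged and expressed with PURExpress, were applied at about 100-200 nM to universal all-10-mer Agilent arrays. These arrays had been made double-stranded by primer extension on fresh or once-stripped slides. Detection used fluorescent anti-GST, normalisation used masliner, and E-scores for ungapped eight-base words pooled with reverse complements came from the Universal PBM Analysis Suite.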
In the case of GTGACGGA, the “PBM E-score” value is reported as 0.208. In the case of CGCGACTA, the “PBM E-score” value is reported as 0.0153. For GGCCCTGA, the “PBM E-score” value was -0.111. TATGTTAA was tested, and the “PBM E-score” value was 0.192. CGCTCTAA was tested, and the “PBM E-score” value was -0.0496. GACGAGAC was tested, and the “PBM E-score” value was -0.184. With AAAAGACT the “PBM E-score” value was 0.00909. With AATGTCAT the “PBM E-score” value was 0.0297. TAGAGTCA was tested, and the “PBM E-score” value was -0.251. In the case of GTTTTCCA, the “PBM E-score” value is reported as 0.0497. In the case of ATGCTCCC, the “PBM E-score” value is reported as -0.0998. In the case of ACTAGCGG, the “PBM E-score” value is reported as -0.0915. GGTGAAGA was tested, and the “PBM E-score” value was -0.0915. For ATCGGACG, the “PBM E-score” value was 0.0416. For CAAGGAAA, the “PBM E-score” value was 0.0463. CTAGCCAG was tested, and the “PBM E-score” value was -0.221. For AAGCACAA, the “PBM E-score” value was 0.131. For CAGCATTA, the “PBM E-score” value was -0.0162. With AATCTCGC the “PBM E-score” value was 0.0784. For AACTTTTG, the “PBM E-score” value was 0.126. For GGCTATAC, the “PBM E-score” value was -0.079. In the case of CTTCGTAC, the “PBM E-score” value is reported as 0.045. In the case of GAATCCGA, the “PBM E-score” value is reported as 0.105. For GATGTGGA, the “PBM E-score” value was 0.171. With AGGTGAAC the “PBM E-score” value was -0.0497. With ACCTAACT the “PBM E-score” value was 0.135. In the case of CTACAAAC, the “PBM E-score” value is reported as 0.0828. For ATCATTCC, the “PBM E-score” value was -0.0151. With GACCCCCA the “PBM E-score” value was -0.334. In the case of CCTCAACG, the “PBM E-score” value is reported as -0.238. For ACGTGATC, the “PBM E-score” value was -0.11. For ATGTTCGG, the “PBM E-score” value was 0.181. For CAAACATA, the “PBM E-score” value was 0.0624. With AGACCAAA the “PBM E-score” value was 0.026. CTATACTA was tested, and the “PBM E-score” value was 0.21. In the case of AAGGAGAG, the “PBM E-score” value is reported as -0.224. With GCAATTAA the “PBM E-score” value was 0.24. AAGGACTC was tested, and the “PBM E-score” value was -0.00078. In the case of AAACGTAG, the “PBM E-score” value is reported as -0.0839. In the case of AACAGTTG, the “PBM E-score” value is reported as -0.0513. In the case of ACCCGCCT, the “PBM E-score” value is reported as -0.184. For ATTAGCGC, the “PBM E-score” value was 0.03. In the case of ATCCACTC, the “PBM E-score” value is reported as 0.00375. With TCGAGCCA the “PBM E-score” value was -0.266. In the case of CGGAAACG, the “PBM E-score” value is reported as 0.0711. AGTGAGGG was tested, and the “PBM E-score” value was -0.249. For CTCCAGTC, the “PBM E-score” value was -0.0811. In the case of ACCTTTTG, the “PBM E-score” value is reported as 0.0149. In the case of ACGGCATA, the “PBM E-score” value is reported as -0.0441. GTACGCGA was tested, and the “PBM E-score” value was -0.205. In the case of GCTATCAC, the “PBM E-score” value is reported as -0.175. For TGGCCACA, the “PBM E-score” value was -0.0965. In the case of CCTGGTTA, the “PBM E-score” value is reported as -0.0745. ATATCCGG was tested, and the “PBM E-score” value was 0.159. In the case of ACAAATTG, the “PBM E-score” value is reported as 0.0792. TCTCAGCA was tested, and the “PBM E-score” value was -0.256. In the case of TATTCGGA, the “PBM E-score” value is reported as 0.352. In the case of TGGGCGAA, the “PBM E-score” value is reported as -0.101. CGACCGAC was tested, and the “PBM E-score” value was 0.0304. GAACCGGA was tested, and the “PBM E-score” value was 0.32. AGTAATCA was tested, and the “PBM E-score” value was 0.0342. With ATCCGTTA the “PBM E-score” value was 0.275. AGGATGCA was tested, and the “PBM E-score” value was -0.108. For GAACGCAC, the “PBM E-score” value was -0.058. In the case of ACGTCCTA, the “PBM E-score” value is reported as -0.0698. For CAAAGACA, the “PBM E-score” value was 0.00325. With CCACTCGC the “PBM E-score” value was -0.258. CAGTCGGG was tested, and the “PBM E-score” value was -0.00267. For TACGCACA, the “PBM E-score” value was -0.0951. For CGCTGGGC, the “PBM E-score” value was -0.0446. For ACAAATAA, the “PBM E-score” value was 0.209. In the case of AGGTCCGC, the “PBM E-score” value is reported as 0.286. With CGATCGCA the “PBM E-score” value was -0.064. In the case of GGACCTGA, the “PBM E-score” value is reported as 0.127. AAAGCTAA was tested, and the “PBM E-score” value was 0.105. In the case of ATGCAGGG, the “PBM E-score” value is reported as -0.26. AATAACTG was tested, and the “PBM E-score” value was 0.219. For GCTCGAGC, the “PBM E-score” value was -0.0513. For ACAGGCTG, the “PBM E-score” value was -0.184. For GACAAGGC, the “PBM E-score” value was -0.17. ACGGGAAA was tested, and the “PBM E-score” value was 0.0626. For AGGGGGTG, the “PBM E-score” value was -0.286. ATAGGTCA was tested, and the “PBM E-score” value was 0.0286. For ACAATGAC, the “PBM E-score” value was -0.0412. For GAATTTAC, the “PBM E-score” value was 0.0497. CGCCTGAA was tested, and the “PBM E-score” value was -0.0478. For CAGACTGA, the “PBM E-score” value was -0.0426. In the case of CTATTTCC, the “PBM E-score” value is reported as 0.166. In the case of ACATACGT, the “PBM E-score” value is reported as -0.0114. In the case of CACACCCC, the “PBM E-score” value is reported as -0.157. ACCCGGCG was tested, and the “PBM E-score” value was -0.163. With TATATACA the “PBM E-score” value was 0.316. For AGCAGACT, the “PBM E-score” value was -0.0252. In the case of GGTACGTA, the “PBM E-score” value is reported as -0.182. For CAAGGCAA, the “PBM E-score” value was -0.0339. ACCCAAAA was tested, and the “PBM E-score” value was -0.0255. For GCCTTCGC, the “PBM E-score” value was -0.122. CGTGCGAA was tested, and the “PBM E-score” value was -0.0471. AGGGCGAT was tested, and the “PBM E-score” value was -0.29. CCATATCC was tested, and the “PBM E-score” value was -0.0916. For AACTTCTT, the “PBM E-score” value was 0.131. With AACATAGA the “PBM E-score” value was 0.0101. For CATGTGAC, the “PBM E-score” value was -0.0811. In the case of ACCGCAGG, the “PBM E-score” value is reported as -0.0326. For CTTAACCA, the “PBM E-score” value was 0.0986. For ATGAAGGC, the “PBM E-score” value was 0.079. In the case of AGATGACC, the “PBM E-score” value is reported as -0.052. For CGCAAGCA, the “PBM E-score” value was 0.0173. For CGCCCTCA, the “PBM E-score” value was -0.206. With ACATGTAT the “PBM E-score” value was 0.239.
